According to patent publication US5169932A, “GnRH analogs” (The Salk Institute for Biological Studies, priority 1990, dated 1992):
Part of at least one peptide drawing is inferred or uncertain, most often the ends. Some entries repeat one wording, which the source may state once for all of them. Numbered stars: 1 amine (or outer) side, 2 acyl side, 3 side chain; on linkers, the order of the positions; unused ones are H or OH. Square brackets hold non-standard residues; d marks the D form. Peptide text beside a SMILES is read from it. * marks the point of attachment. dLys(Nε-C(NCN)NHBu) = CCCCNC(=NC#N)NCCCC[C@@H](N)C(=O)O; X13 = N#CN=C(NCCCC[C@@H](N[*:1])C(=O)[*:2])NCc1ccccn1; X27 = N#CN=C(NCCCC[C@@H](N[*:1])C(=O)[*:2])NCc1cccnc1; hArg(ω-Bu,ω'-CN) = CCCC/N=C(\NC#N)NCCCC[C@H](N)C(=O)O; X20 = N#CN=C(NCCCC[C@H](N[*:1])C(=O)[*:2])NCc1ccccn1; X26 = N#CN=C(NCCCC[C@H](N[*:1])C(=O)[*:2])NCc1cccnc1; X16 = N#CN=C(NCCCC[C@H](N[*:1])C(=O)[*:2])Oc1ccccc1; X7 = N#CN=C(NCCCC[C@@H](N[*:1])C(=O)[*:2])NC1CCCCC1; X6 = N#CN=C(NCCCC[C@H](N[*:1])C(=O)[*:2])NC1CCCCC1; X23 = N#CN=C1NCCOCCN1CCCC[C@@H](N[*:1])C(=O)[*:2]; X8 = CCCCNC(=NC(N)=O)NCCCC[C@H](N[*:1])C(=O)[*:2]; X3 = CCNC(=NC#N)NCCCC[C@@H](N[*:1])C(=O)[*:2]; X2 = CCNC(=NC#N)NCCCC[C@H](N[*:1])C(=O)[*:2]; Triazol3yl(1,2,4-5-NH2) = Nc1nc(*)n[nH]1; dPhe(4-Cl) = N[C@H](Cc1ccc(Cl)cc1)C(=O)O; d2Nal = N[C@H](Cc1ccc2ccccc2c1)C(=O)O; Lys(iPr) = CC(C)NCCCC[C@H](N)C(=O)O; d3Pal = N[C@H](Cc1cccnc1)C(=O)O; Nicotinoyl = O=C(c1cccnc1)*; dOrn = NCCC[C@@H](N)C(=O)O; ΔPro = O=C(O)[C@@H]1C=CCN1; Orn = NCCC[C@H](N)C(=O)O

System: mature female Sprague-Dawley rats (ovulation)
Assay: in vivo test of effectiveness to prevent ovulation in female rats
Set-up: species or system rat
Conditions: for Rats Ovulating: injected at about noon on the day of proestrus, rats ovulating/rats treated

Structure (SMILES) | Rats Ovulating (dosage 2.5 micrograms) | Rats Ovulating (dosage 10 micrograms) | also measured
CCNC(=NC#N)NCCCC[C@H](NC(=O)[C@H](CO)NC(=O)[C@@H](Cc1cccnc1)NC(=O)[C@@H](Cc1ccc(Cl)cc1)NC(=O)[C@@H](Cc1ccc2ccccc2c1)NC(C)=O)C(=O)N[C@H](CCCCNC(=NC#N)NCC)C(=O)N[C@@H](CC(C)C)C(=O)N[C@@H](CCCCNC(C)C)C(=O)N1CCC[C@H]1C(=O)N[C@H](C)C(N)=O [Peptide 10] (Ac-[d2Nal][dPhe(4-Cl)][d3Pal]S[X2][X3]L[Lys(iPr)]P[dA]-NH2) | 5/8 | – | Rats Ovulating (dosage 2.0 micrograms): 1/10
CCCCNC(=NC#N)NCCCC[C@@H](NC(=O)[C@H](Cc1ccc(O)cc1)NC(=O)[C@H](CO)NC(=O)[C@@H](Cc1cccnc1)NC(=O)[C@@H](Cc1ccc(Cl)cc1)NC(=O)[C@@H](Cc1ccc2ccccc2c1)NC(C)=O)C(=O)N[C@@H](CC(C)C)C(=O)N[C@@H](CCCNC(=N)N)C(=O)N1CCC[C@H]1C(=O)N[C@H](C)C(N)=O [Peptide 33] (Ac-[d2Nal][dPhe(4-Cl)][d3Pal]SY[dLys(Nε-C(NCN)NHBu)]LRP[dA]-NH2) | 4/17 | – | –
CC(=O)N[C@H](Cc1ccc2ccccc2c1)C(=O)N[C@H](Cc1ccc(Cl)cc1)C(=O)N[C@H](CCCCNc1nc(N)n[nH]1)C(=O)N[C@@H](CO)C(=O)N[C@@H](Cc1ccc(O)cc1)C(=O)N[C@H](CCCNC(=N)N)C(=O)N[C@@H](CC(C)C)C(=O)N[C@@H](CCCNC(=N)N)C(=O)N1CCC[C@H]1C(=O)N[C@H](C)C(N)=O [Peptide 113] (Ac-[d2Nal][dPhe(4-Cl)][dK](Triazol3yl(1,2,4-5-NH2))SY[dR]LRP[dA]-NH2) | – | – | Rats Ovulating (dosage 1.0 micrograms): 5/6
CCCCNC(=NC#N)NCCCC[C@@H](NC(=O)[C@@H](Cc1ccc(Cl)cc1)NC(=O)[C@@H](Cc1ccc2ccccc2c1)NC(C)=O)C(=O)N[C@@H](CO)C(=O)N[C@@H](Cc1ccc(O)cc1)C(=O)N[C@H](CCCNC(=N)N)C(=O)N[C@@H](CC(C)C)C(=O)N[C@@H](CCCNC(=N)N)C(=O)N1CCC[C@H]1C(=O)N[C@H](C)C(N)=O [Peptide 111] (Ac-[d2Nal][dPhe(4-Cl)][dLys(Nε-C(NCN)NHBu)]SY[dR]LRP[dA]-NH2) | 1/11 | – | Rats Ovulating (dosage 0.5 micrograms): 5/7; Rats Ovulating (dosage 1.0 micrograms): 0/5
CC(=O)N[C@H](Cc1ccc2ccccc2c1)C(=O)N[C@H](Cc1ccc(Cl)cc1)C(=O)N[C@H](Cc1cccnc1)C(=O)N[C@@H](CO)C(=O)N[C@@H](CCCCNC(=NC#N)NCc1ccccn1)C(=O)N[C@H](CCCCNC(=NC#N)NCc1ccccn1)C(=O)N[C@@H](CC(C)C)C(=O)N[C@@H](CCCCNC(C)C)C(=O)N1CCC[C@H]1C(=O)N[C@H](C)C(N)=O [Peptide 6] (Ac-[d2Nal][dPhe(4-Cl)][d3Pal]S[X20][X13]L[Lys(iPr)]P[dA]-NH2) | 0/6 | – | –
CCCCNC(=NC#N)NCCCC[C@@H](NC(=O)[C@H](CCCNC(=N)N)NC(=O)[C@H](CO)NC(=O)[C@@H](Cc1cccnc1)NC(=O)[C@@H](Cc1ccc(Cl)cc1)NC(=O)[C@@H](Cc1ccc2ccccc2c1)NC(C)=O)C(=O)N[C@@H](CC(C)C)C(=O)N[C@@H](CCCNC(=N)N)C(=O)N1CCC[C@H]1C(=O)N[C@H](C)C(N)=O [Peptide 88] (Ac-[d2Nal][dPhe(4-Cl)][d3Pal]SR[dLys(Nε-C(NCN)NHBu)]LRP[dA]-NH2) | 0/4 | 0/8 | Rats Ovulating (dosage 1.0 micrograms): 4/15
CCCCNC(=NC#N)NCCCC[C@H](NC(=O)[C@H](CC(C)C)NC(=O)[C@@H](CCCCNC(=O)c1cccnc1)NC(=O)[C@H](CCCCNC(=O)c1cccnc1)NC(=O)[C@H](CO)NC(=O)[C@@H](Cc1cccnc1)NC(=O)[C@@H](Cc1ccc(Cl)cc1)NC(=O)[C@@H](Cc1ccc2ccccc2c1)NC(C)=O)C(=O)N1CCC[C@H]1C(=O)N[C@H](C)C(N)=O [Peptide 13] (Ac-[d2Nal][dPhe(4-Cl)][d3Pal]SK(Nicotinoyl)[dK](Nicotinoyl)L[hArg(ω-Bu,ω'-CN)]P[dA]-NH2) | – | 3/5 | Rats Ovulating (dosage 5.0 micrograms): 5/12
CCCCNC(=NC(N)=O)NCCCC[C@H](NC(=O)[C@H](CO)NC(=O)[C@@H](Cc1cccnc1)NC(=O)[C@@H](Cc1ccc(Cl)cc1)NC(=O)[C@@H](Cc1ccc2ccccc2c1)NC(C)=O)C(=O)N[C@H](Cc1ccc2ccccc2c1)C(=O)N[C@@H](CC(C)C)C(=O)N[C@@H](CCCNC(=N)N)C(=O)N1CCC[C@H]1C(=O)N[C@H](C)C(N)=O [Peptide 123] (Ac-[d2Nal][dPhe(4-Cl)][d3Pal]S[X8][d2Nal]LRP[dA]-NH2) | – | 1/10 | Rats Ovulating (dosage 5.0 micrograms): 0/6
CC(=O)N[C@H](Cc1ccc2ccccc2c1)C(=O)N[C@H](Cc1ccc(Cl)cc1)C(=O)N[C@H](CCCCNc1nc(N)n[nH]1)C(=O)N[C@@H](CO)C(=O)N[C@@H](Cc1ccc(O)cc1)C(=O)N[C@H](CCCNC(=N)N)C(=O)N[C@@H](CC(C)C)C(=O)N[C@@H](CCCCNC(C)C)C(=O)N1CCC[C@H]1C(=O)N[C@H](C)C(N)=O [Peptide 117] (Ac-[d2Nal][dPhe(4-Cl)][dK](Triazol3yl(1,2,4-5-NH2))SY[dR]L[Lys(iPr)]P[dA]-NH2) | – | 0/6 | Rats Ovulating (dosage 5.0 micrograms): 2/5
CC(=O)N[C@H](Cc1ccc2ccccc2c1)C(=O)N[C@H](Cc1ccc(Cl)cc1)C(=O)N[C@H](Cc1cccnc1)C(=O)N[C@@H](CO)C(=O)N[C@@H](CCCCNC(=NC#N)NC1CCCCC1)C(=O)N[C@H](CCCCNC(=NC#N)NC1CCCCC1)C(=O)N[C@@H](CC(C)C)C(=O)N[C@@H](CCCCNC(C)C)C(=O)N1CCC[C@H]1C(=O)N[C@H](C)C(N)=O [Peptide 3] (Ac-[d2Nal][dPhe(4-Cl)][d3Pal]S[X6][X7]L[Lys(iPr)]P[dA]-NH2) | 7/9 | – | Rats Ovulating (dosage 2.0 micrograms): 1/10
CCCCNC(=NC#N)NCCCC[C@H](NC(=O)[C@H](CO)NC(=O)[C@@H](Cc1cccnc1)NC(=O)[C@@H](Cc1ccc(Cl)cc1)NC(=O)[C@@H](Cc1ccc2ccccc2c1)NC(C)=O)C(=O)N[C@H](CCCCNC(=NC#N)NCCCC)C(=O)N[C@@H](CC(C)C)C(=O)N[C@@H](CCCNC(=N)N)C(=O)N1CCC[C@H]1C(=O)N[C@H](C)C(N)=O [Peptide 15] (Ac-[d2Nal][dPhe(4-Cl)][d3Pal]S[hArg(ω-Bu,ω'-CN)][dLys(Nε-C(NCN)NHBu)]LRP[dA]-NH2) | 0/4 | – | Rats Ovulating (dosage 1.0 micrograms): 8/18
CC(=O)N[C@H](Cc1ccc2ccccc2c1)C(=O)N[C@H](Cc1ccc(Cl)cc1)C(=O)N[C@H](Cc1cccnc1)C(=O)N[C@@H](CO)C(=O)N[C@@H](CCCNc1nc(N)n[nH]1)C(=O)N[C@H](CCCNc1nc(N)n[nH]1)C(=O)N[C@@H](CC(C)C)C(=O)N[C@@H](CCCCNC(C)C)C(=O)N1CCC[C@H]1C(=O)N[C@H](C)C(N)=O [Peptide 103] (Ac-[d2Nal][dPhe(4-Cl)][d3Pal]S[Orn](Triazol3yl(1,2,4-5-NH2))[dOrn](Triazol3yl(1,2,4-5-NH2))L[Lys(iPr)]P[dA]-NH2) | 5/7 | – | –
CC(=O)N[C@H](Cc1ccc2ccccc2c1)C(=O)N[C@H](Cc1ccc(Cl)cc1)C(=O)N[C@H](Cc1cccnc1)C(=O)N[C@@H](CO)C(=O)N[C@@H](Cc1ccc(O)cc1)C(=O)N[C@H](CCCCN1CCOCCNC1=NC#N)C(=O)N[C@@H](CC(C)C)C(=O)N[C@@H](CCCCNC(C)C)C(=O)N1CCC[C@H]1C(=O)N[C@H](C)C(N)=O [Example 149] (Ac-[d2Nal][dPhe(4-Cl)][d3Pal]SY[X23]L[Lys(iPr)]P[dA]-NH2) | – | – | effective to prevent ovulation of female mammals (at low dosages): considered to be effective
CC(=O)N[C@H](Cc1ccc2ccccc2c1)C(=O)N[C@H](Cc1ccc(Cl)cc1)C(=O)N[C@H](Cc1cccnc1)C(=O)N[C@@H](CO)C(=O)N[C@@H](CCCCNC(=NC#N)NCc1cccnc1)C(=O)N[C@H](CCCCNC(=NC#N)NCc1cccnc1)C(=O)N[C@@H](CC(C)C)C(=O)N[C@@H](CCCCNC(C)C)C(=O)N1CCC[C@H]1C(=O)N[C@H](C)C(N)=O [Peptide 7] (Ac-[d2Nal][dPhe(4-Cl)][d3Pal]S[X26][X27]L[Lys(iPr)]P[dA]-NH2) | 3/20 | – | –
CC(=O)N[C@H](Cc1ccc2ccccc2c1)C(=O)N[C@H](Cc1ccc(Cl)cc1)C(=O)N[C@H](Cc1cccnc1)C(=O)N[C@@H](CO)C(=O)N[C@@H](Cc1ccc(O)cc1)C(=O)N[C@H](CCCNC(=N)N)C(=O)N[C@@H](CC(C)C)C(=O)N[C@@H](CCCCNC(=NC#N)Oc1ccccc1)C(=O)N1CCC[C@H]1C(=O)N[C@H](C)C(N)=O [Peptide 55] (Ac-[d2Nal][dPhe(4-Cl)][d3Pal]SY[dR]L[X16]P[dA]-NH2) | – | 6/7 | Rats Ovulating (dosage 25 micrograms): 2/5
CCCCNC(=NC(N)=O)NCCCC[C@H](NC(=O)[C@H](CC(C)C)NC(=O)[C@@H](CCCCNC(=O)c1cccnc1)NC(=O)[C@H](CCCCNC(=O)c1cccnc1)NC(=O)[C@H](CO)NC(=O)[C@@H](Cc1cccnc1)NC(=O)[C@@H](Cc1ccc(Cl)cc1)NC(=O)[C@@H](Cc1ccc2ccccc2c1)NC(C)=O)C(=O)N1CCC[C@H]1C(=O)N[C@H](C)C(N)=O [Peptide 106] (Ac-[d2Nal][dPhe(4-Cl)][d3Pal]SK(Nicotinoyl)[dK](Nicotinoyl)L[X8]P[dA]-NH2) | – | – | Rats Ovulating (dosage 5.0 micrograms): 0/7
CCCCNC(=NC#N)NCCCC[C@@H](NC(=O)[C@@H](Cc1ccc(Cl)cc1)NC(=O)[C@@H](Cc1ccc2ccccc2c1)NC(C)=O)C(=O)N[C@@H](CO)C(=O)N[C@@H](Cc1ccc(O)cc1)C(=O)N[C@H](CCCNC(=N)N)C(=O)N[C@@H](CC(C)C)C(=O)N[C@@H](CCCCNC(C)C)C(=O)N1CCC[C@H]1C(=O)N[C@H](C)C(N)=O [Peptide 116] (Ac-[d2Nal][dPhe(4-Cl)][dLys(Nε-C(NCN)NHBu)]SY[dR]L[Lys(iPr)]P[dA]-NH2) | 0/6 | – | Rats Ovulating (dosage 1.0 micrograms): 2/8
CCCCNC(=NC#N)NCCCC[C@H](NC(=O)[C@H](CC(C)C)NC(=O)[C@@H](Cc1ccc2ccccc2c1)NC(=O)[C@H](Cc1ccc(O)cc1)NC(=O)[C@H](CO)NC(=O)[C@@H](Cc1ccc2ccccc2c1)NC(=O)[C@@H](Cc1ccc(Cl)cc1)NC(=O)[C@@H]1C=CCN1C(C)=O)C(=O)N1CCC[C@H]1C(=O)N[C@H](C)C(N)=O [Peptide 17] (Ac-[ΔPro][dPhe(4-Cl)][d2Nal]SY[d2Nal]L[hArg(ω-Bu,ω'-CN)]P[dA]-NH2) | – | 6/8 | Rats Ovulating (dosage 15 micrograms): 7/10
